The list shows a part of the results. Interaction screen of human proteins with wild-type SARS-CoV-2 proteins by split-DHFR complementation in yeast, 1 µg/mL methotrexate. Value = fitness of the pair (three or more lineages) minus that of the viral protein without a human partner, on a scale set by negative (0) and fused positive (1) controls, mean of up to three cultures; higher = more likely to interact. Active = false discovery rate below 0.05 (one-sided t-test) in at least one culture. Nearly all pairs are not hits, and differences among them are mostly noise (correlation between cultures about 0.3); most hits were seen in one culture only. Human sequences are the Swiss-Prot entries looked up by gene name; the clone may be another isoform. NSP2 values were corrected by the authors for a growth advantage. Listed are human proteins with a hit and a random twelfth of the others.
B1: APOC4, P55056 (protein)
chain: MSLLRNRLQALPALCLCVLVLACIGACQPEAQEGTLSPPPKLKMSRWSLVRGRMKELLETVVNRTRDGWQWFWSPSTFRGFMQTYYDDHLRDLGPLTKAWFLESKDSLLKKTHSLCPRLVCGDKDQG
B2: C16orf3, O95177 (protein)
chain: MKLSSAAGQESPGHPHPSPPAWTLKKPSESVAQRAMCSARACPVACPVGCPAACPVGCPIACPVSCPVACPVGCPVGSMATAPQGLSPQEWEADRETGSSSHAGTTQCSIHSPSSSSRHLSRTQT
B3: CHORDC1, Q9UHD1 (protein)
chain: MALLCYNRGCGQRFDPETNSDDACTYHPGVPVFHDALKGWSCCKRRTTDFSDFLSIVGCTKGRHNSEKPPEPVKPEVKTTEKKELCELKPKFQEHIIQAPKPVEAIKRPSPDEPMTNLELKISASLKQALDKLKLSSGNEENKKEEDNDEIKIGTSCKNGGCSKTYQGLESLEEVCVYHSGVPIFHEGMKYWSCCRRKTSDFNTFLAQEGCTKGKHMWTKKDAGKKVVPCRHDWHQTGGEVTISVYAKNSLPELSRVEANSTLLNVHIVFEGEKEFDQNVKLWGVIDVKRSYVTMTATKIEITMRKAEPMQWASLELPAAKKQEKQKDATTD
B4: ARHGEF18, Q6ZSZ5 (protein)
chain: MGDDQEDDFPRRLSESMEDLSLDLGALQGSEYLQDLGLGAPSHSQPGETPDSRPTGEEPGRDSLFSSLAGSQDLSRRRSWERSRSCSESWRRLSLDASAVDEEPCLPRTLASLALNLPGGGLKTWTQGCLSGGGTPAESPGKECDSPKKRGRSRSVPVSFYEIRSPEISPGLEVPTPPVQGLEPPVLECMEKDHVEPDHVLIVQQVLQELRQYHGARQRACMSASPGGAHSNLTWFEFLSESEDGAGKNEKSDKSTSVKRRLSCLRSRVTRQKEKGKSPAHLKDKGQDARERRECVNGHQLLQGTFSGPSSCPLCGKPFLSSASLKEHPRGTLLSDGSPALSRNVGMTVSQKGGPQPTPSPAGPGTQLGPITGEMDEADSAFLKFKQTADDSLSLTSPNTESIFVEDPYTASLRSEIESDGHEFEAESWSLAVDAAYAKKQKREVVKRQDVLYELMQTEVHHVRTLKIMLKVYSRALQEELQFSSKAIGRLFPCADDLLETHSHFLARLKERRQESLEEGSDRNYVIQKIGDLLVQQFSGENGERMKEKYGVFCSGHNEAVSHYKLLLQQNKKFQNLIKKIGNFSIVRRLGVQECILLVTQRITKYPVLVERIIQNTEAGTEDYEDLTQALNLIKDIISQVDAKVSECEKGQRLREIAGKMDLKSSSKLKNGLTFRKEDMLQRQLHLEGMLCWKTTSGRLKDILAILLTDVLLLLQEKDQKYVFASVDSKPPVISLQKLIVREVANEEKAMFLISASLQGPEMYEIYTSSKEDRNAWMAHIQRAVESCPDEEEGPFSLPEEERKVVEARATRLRDFQERLSMKDQLIAQSLLEKQQIYLEMAEMGGLEDLPQPRGLFRGGDPSETLQGELILKSAMSEIEGIQSLICRQLGSANGQAEDGGSSTGPPRRAETFAGYDCTNSPTKNGSFKKKVSSTDPRPRDWRGPPNSPDLKLSDSDIPGSSEESPQVVEAPGTESDPRLPTVLESELVQRIQTLSQLLLNLQAVIAHQDSYVETQRAAIQEREKQFRLQSTRGNLLLEQERQRNFEKQREERAALEKLQSQLRHEQQRWERERQWQHQELERAGARLQEREGEARQLRERLEQERAELERQRQAYQHDLERLREAQRAVERERERLELLRRLKKQNTAPGALPPDTLAEAQPPSHPPSFNGEGLEGPRVSMLPSGVGPEYAERPEVARRDSAPTENRLAKSDVPIQLLSATNQFQRQAAVQQQIPTKLAASTKGGKDKGGKSRGSQRWESSASFDLKQQLLLNKLMGKDESTSRNRRSLSPILPGRHSPAPPPDPGFPAPSPPPADSPSEGFSLKAGGTALLPGPPAPSPLPATPLSAKEDASKEDVIFF

How the values were obtained:
Experiment in all cases: yeast fitness gain over the viral ORF with no human partner (scaled fitness); higher = more likely to interact
SARS-CoV-2 E = molecular target: SARS-CoV-2 E
Method: (§1)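 Split mouse DHFR complementation in pooled diploid yeast: human ORFeome clones carry one fragment and viral ORFs the other; barcoded lineages compete in 1 µg/mL methotrexate and fitness is read by barcode sequencing in up to three cultures.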

SARS-CoV-2 M = molecular target: SARS-CoV-2 M
Method: as §1

SARS-CoV-2 N = molecular target: SARS-CoV-2 N
Method: as §1

SARS-CoV-2 NSP1 = molecular target: SARS-CoV-2 NSP1
Method: as §1

SARS-CoV-2 NSP10 = molecular target: SARS-CoV-2 NSP10
Method: as §1

SARS-CoV-2 NSP12 = molecular target: SARS-CoV-2 NSP12
Method: as §1

SARS-CoV-2 NSP13 = molecular target: SARS-CoV-2 NSP13
Method: as §1

SARS-CoV-2 NSP14 = molecular target: SARS-CoV-2 NSP14
Method: as §1

SARS-CoV-2 NSP15 = molecular target: SARS-CoV-2 NSP15
Method: as §1

SARS-CoV-2 NSP16 = molecular target: SARS-CoV-2 NSP16
Method: as §1

SARS-CoV-2 NSP2 = molecular target: SARS-CoV-2 NSP2
Method: as §1

SARS-CoV-2 NSP4 = molecular target: SARS-CoV-2 NSP4
Method: as §1

SARS-CoV-2 NSP5 = molecular target: SARS-CoV-2 NSP5
Method: as §1

SARS-CoV-2 NSP6 = molecular target: SARS-CoV-2 NSP6
Method: as §1

SARS-CoV-2 NSP7 = molecular target: SARS-CoV-2 NSP7
Method: as §1

SARS-CoV-2 NSP8 = molecular target: SARS-CoV-2 NSP8
Method: as §1

SARS-CoV-2 NSP9 = molecular target: SARS-CoV-2 NSP9
Method: as §1

SARS-CoV-2 ORF10 = molecular target: SARS-CoV-2 ORF10
Method: as §1

SARS-CoV-2 ORF3A = molecular target: SARS-CoV-2 ORF3A
Method: as §1

SARS-CoV-2 ORF3B = molecular target: SARS-CoV-2 ORF3B
Method: as §1

SARS-CoV-2 ORF6 = molecular target: SARS-CoV-2 ORF6
Method: as §1

SARS-CoV-2 ORF7A = molecular target: SARS-CoV-2 ORF7A
Method: as §1

SARS-CoV-2 ORF7B = molecular target: SARS-CoV-2 ORF7B
Method: as §1

SARS-CoV-2 ORF8 = molecular target: SARS-CoV-2 ORF8
Method: as §1

SARS-CoV-2 ORF9B = molecular target: SARS-CoV-2 ORF9B
Method: as §1

[1] = molecular target: SARS-CoV-2 ORF9Bwu (the 73-codon ORF)
Method: as §1

SARS-CoV-2 S = molecular target: SARS-CoV-2 S
Method: as §1

Row | Binder | yeast fitness gain (SARS-CoV-2 E) | yeast fitness gain (SARS-CoV-2 M) | yeast fitness gain (SARS-CoV-2 N) | yeast fitness gain (SARS-CoV-2 NSP1) | yeast fitness gain (SARS-CoV-2 NSP10) | yeast fitness gain (SARS-CoV-2 NSP12) | yeast fitness gain (SARS-CoV-2 NSP13) | yeast fitness gain (SARS-CoV-2 NSP14) | yeast fitness gain (SARS-CoV-2 NSP15) | yeast fitness gain (SARS-CoV-2 NSP16) | yeast fitness gain (SARS-CoV-2 NSP2) | yeast fitness gain (SARS-CoV-2 NSP4) | yeast fitness gain (SARS-CoV-2 NSP5) | yeast fitness gain (SARS-CoV-2 NSP6) | yeast fitness gain (SARS-CoV-2 NSP7) | yeast fitness gain (SARS-CoV-2 NSP8) | yeast fitness gain (SARS-CoV-2 NSP9) | yeast fitness gain (SARS-CoV-2 ORF10) | yeast fitness gain (SARS-CoV-2 ORF3A) | yeast fitness gain (SARS-CoV-2 ORF3B) | yeast fitness gain (SARS-CoV-2 ORF6) | yeast fitness gain (SARS-CoV-2 ORF7A) | yeast fitness gain (SARS-CoV-2 ORF7B) | yeast fitness gain (SARS-CoV-2 ORF8) | yeast fitness gain (SARS-CoV-2 ORF9B) | yeast fitness gain [1] | yeast fitness gain (SARS-CoV-2 S)
1 | B1 | inactive: -0.0179 | inactive: 0.0152 | inactive: 0.0325 | inactive: -0.0928 | inactive: -0.0885 | inactive: 0.0396 | inactive: 0.0627 | inactive: 0.0386 | inactive: 0.0155 | inactive: -0.117 | inactive: -0.0656 | inactive: 0.124 | inactive: 0.0261 | inactive: -0.0751 | inactive: 0.0253 | inactive: 0.0544 | inactive: -0.0025 | inactive: 0.0176 | inactive: 0.0619 | inactive: 0.0524 | inactive: -0.0194 | inactive: 0.0165 | inactive: 0.0568 | inactive: -0.0352 | inactive: -0.0241 | inactive: 0.0865 | inactive: -0.025
2 | B2 | inactive: -0.0596 | inactive: -0.000473 | inactive: 0.0398 | inactive: -0.00687 | inactive: 0.00186 | inactive: 0.0101 | inactive: -0.0117 | inactive: -0.0275 | inactive: -0.0163 | inactive: 0.0324 | inactive: -0.14 | inactive: -0.0218 | inactive: -0.0443 | inactive: -0.0828 | inactive: -0.153 | inactive: 0.00468 | inactive: -0.0836 | inactive: 0.0266 | inactive: -0.108 | inactive: 0.0405 | inactive: 0.0274 | inactive: 0.0811 | inactive: -0.000328 | inactive: -0.00276 | inactive: -0.00111 | inactive: 0.000286 | inactive: 0.0404
3 | B3 | inactive: 0.00534 | inactive: -0.0731 | – | inactive: 0.0903 | inactive: 0.0354 | inactive: 0.0323 | inactive: -0.0223 | – | inactive: -0.0229 | – | active: 0.338 | – | inactive: 0.0883 | inactive: -0.104 | inactive: 0.0377 | inactive: -0.236 | inactive: -0.203 | inactive: -0.00949 | inactive: -0.236 | inactive: 0.0602 | inactive: 0.0358 | – | inactive: -0.177 | inactive: -0.0642 | inactive: 0.0114 | inactive: -0.0817 | inactive: 0.091
4 | B4 | inactive: -0.215 | inactive: 0.0988 | inactive: -0.0642 | inactive: -0.0971 | inactive: -0.0377 | inactive: 0.0468 | inactive: -0.0185 | inactive: 0.147 | inactive: -0.13 | inactive: 0.0796 | inactive: -0.143 | – | inactive: 0.0238 | inactive: -0.0117 | inactive: -0.0289 | inactive: -0.0418 | inactive: 0.00608 | inactive: -0.0292 | inactive: -0.0425 | inactive: 0.0404 | inactive: -0.0183 | inactive: -0.0325 | inactive: -0.00186 | inactive: 0.0173 | inactive: -0.0289 | inactive: -0.0728 | inactive: 0.0295
